# Test results reported in article PMC10668032.
# This is one part of the list. At the low end of the ranking, values are background and their order means little.
# Target: SIX1 homeodomain (reference allele) (UniProt Q15475)
# Assay: universal protein binding microarray
# Conditions: Universal all-10-mer PBM (8x60K, AMADID 030236), 300 nM GST-tagged protein, Alexa Fluor 488 anti-GST; buffer, salt, pH and temperature not stated; high values mean tight binding; most listed sequences are background and not binding sites; double strand, one strand shown
row,Sequence,binding signal
1,CACTGAAA,-0.0676 E-score
2,CGCGCAAC,-0.196 E-score
3,CTGCAGGA,-0.0628 E-score
4,ACCGCACC,0.00277 E-score
5,CGATTAAC,0.24 E-score
6,GCAAGTCC,-0.174 E-score
7,GTGTGTTA,-0.136 E-score
8,AGCAAATA,-0.0272 E-score
9,AGCGTCGG,-0.136 E-score
10,AGACGGGG,0.111 E-score
11,AGGGTATG,0.28 E-score
12,ATCGCGCG,0.213 E-score
13,CCTAAGGA,0.146 E-score
14,GCGAAGTA,-0.108 E-score
15,AAAAATGC,-0.00573 E-score
16,CAGATATC,0.456 E-score
17,TCGCTGCA,-0.111 E-score
18,GGGGAGGA,0.166 E-score
19,CCCGCCAA,0.0759 E-score
20,AAAACCTA,-0.0904 E-score
21,ACCCGCCT,0.0095 E-score
22,AGGATGGA,0.079 E-score
23,CTCAAGAG,-0.169 E-score
24,ATTGCTCA,-0.0366 E-score
25,TCACACGA,0.0662 E-score

row,Sequence,binding signal
1,TACTAACA,-0.0347 E-score
2,AGCATCCG,0.13 E-score
3,ATGGCAAG,-0.259 E-score
4,GACTCGTA,-0.0387 E-score
5,ACAGTTTA,-0.263 E-score
6,GTGCGGAA,-0.0385 E-score
7,ATTGCACG,-0.0424 E-score
8,CCTCGCAC,-0.171 E-score
9,CTAATACC,0.285 E-score
10,AAAAAAGC,-0.424 E-score
11,ATGGGTGG,0.0141 E-score
12,CGCTTGGC,-0.0972 E-score
13,ATTAGATG,0.171 E-score
14,ACCACATG,0.103 E-score
15,ACCCGTAC,0.0217 E-score
16,AAGGTGCG,-0.081 E-score
17,CGGCCGGC,-0.0129 E-score
18,ACCCTTGA,-0.0204 E-score
19,AATCCGAG,0.237 E-score
20,CGAGAGAG,0.00996 E-score
21,ACATCACC,-0.115 E-score
22,ACGACAGC,-0.211 E-score
23,ACGCTAAT,-0.135 E-score
24,GCTAACGA,-0.00797 E-score
25,GGGAATTA,-0.153 E-score

row,Sequence,binding signal
1,AAATAGGA,-0.00121 E-score
2,GATTAGGA,0.101 E-score
3,CCGGGGTC,0.15 E-score
4,ATGCCCTG,0.114 E-score
5,CCTCCATC,-0.0753 E-score
6,TTACGCAA,-0.117 E-score
7,ACCACAGT,0.119 E-score
8,GGTGCTAA,-0.0565 E-score
9,CGCTCACG,-0.0419 E-score
10,TACCCGTA,0.313 E-score
11,AAGTCGAG,0.00992 E-score
12,ACGATAAG,0.0833 E-score
13,ATGATCAG,0.229 E-score
14,ACTGTTAA,-0.142 E-score
15,AGATGAGG,0.148 E-score
16,ACTCAACT,-0.0858 E-score
17,GGAAGCGA,-0.133 E-score
18,AATTTGCC,-0.18 E-score
19,ACGCCTGG,-0.0104 E-score
20,AACGAAGG,-0.266 E-score
21,AACACACG,-0.206 E-score
22,TCGGGGAA,0.181 E-score
23,AATCCAGC,0.0665 E-score
24,CGAAGAAG,-0.14 E-score
25,CCGCGGAG,0.144 E-score

row,Sequence,binding signal
1,AAATCAGA,-0.0194 E-score
2,CGATCAAC,0.0445 E-score
3,CACCCTAC,0.102 E-score
4,ATTCTAGC,0.0421 E-score
5,ACCGTTCA,-0.0349 E-score
6,ACCGAATC,0.0775 E-score
7,AATTGCGG,-0.104 E-score
8,CAAGAAGG,-0.000455 E-score
9,ACAGGAAA,0.00575 E-score
10,CCTAGCAA,-0.0498 E-score
11,CATACTGG,0.128 E-score
12,TTCCGGAA,-0.126 E-score
13,CAGGAAGC,-0.1 E-score
14,ACGGCGCT,-0.279 E-score
15,ACCGTATG,0.129 E-score
16,CCGATCAG,0.24 E-score
17,CGCTGTGC,-0.26 E-score
18,AGCCTGGG,0.106 E-score
19,TTGGCCAA,-0.225 E-score
20,GCTTCAAC,-0.189 E-score
21,AACAGGGT,-0.134 E-score
22,CCTTGATA,0.317 E-score
23,TAGCACAA,-0.189 E-score
24,GGTACTGA,-0.0408 E-score
25,CTGGTTTC,-0.0397 E-score

row,Sequence,binding signal
1,GTTGTCGA,-0.176 E-score
2,GTCATAAC,-0.0288 E-score
3,AGACGTCA,-0.0183 E-score
4,AGTGCCAT,-0.0752 E-score
5,GAAAACGA,-0.0291 E-score
6,ACAAAACT,-0.0831 E-score
7,AATCCGTC,0.234 E-score
8,CTCACCGC,0.00241 E-score
9,ACGCCGAG,-0.0319 E-score
10,GACGAGCC,0.00645 E-score
11,AAGCCAAT,-0.0182 E-score
12,AGTACCCG,0.0757 E-score
13,CTAGCAAC,-0.11 E-score
14,ACAAGCAG,-0.0339 E-score
15,AACTCCTG,-0.116 E-score
16,AGCTGCCA,-0.181 E-score
17,CTCCCACC,-0.221 E-score
18,GGACCGGA,-0.0419 E-score
19,GAGCCATA,0.183 E-score
20,GGCAGTAC,-0.237 E-score
21,CGGAAACG,-0.103 E-score
22,CGAGAGCC,-0.192 E-score
23,CAAACTAC,-0.11 E-score
24,GCCCACAC,-0.163 E-score
25,CTGATTTA,-0.0655 E-score

row,Sequence,binding signal
1,TCCGCAAA,-0.107 E-score
2,CCATTCAG,-0.0601 E-score
3,AAGGTCCC,-0.222 E-score
4,AGAGATCC,0.369 E-score
5,GCCAGTAC,-0.146 E-score
6,AAAGTCAG,-0.33 E-score
7,CGGTTTAA,-0.00179 E-score
8,AACGTAGG,-0.167 E-score
9,CAACACTC,0.0138 E-score
10,ATTTGTTA,-0.159 E-score
11,CACTCGCG,-0.0828 E-score
12,CTCAAGAC,-0.112 E-score
13,AATGGTAT,0.381 E-score
14,GCAGGGCA,-0.00363 E-score
15,CCTCAGAC,0.0208 E-score
16,AGTATAAA,0.148 E-score
17,ATGTCCTC,-0.0138 E-score
18,CGGGACCA,-0.372 E-score
19,GCAATCCC,0.136 E-score
20,ACCCTAGC,-0.00779 E-score
21,AGTGGCGG,-0.0833 E-score
22,AGACGACG,1e-05 E-score
23,CTCGTCAG,-0.0978 E-score
24,CTTGGCCA,-0.16 E-score
25,CAACGCCC,-0.0301 E-score

row,Sequence,binding signal
1,CGTTGGTC,-0.162 E-score
2,ACGACGCG,-0.227 E-score
3,AAGTCGCA,-0.113 E-score
4,CTAGCGTA,-0.0947 E-score
5,ACTATAGT,0.0548 E-score
6,ATTCACCG,-0.12 E-score
7,GTCTAATA,0.0935 E-score
8,CCAACGTC,-0.118 E-score
9,AAGGAGAA,-0.0314 E-score
10,ACAACCCA,-0.0153 E-score
11,GTAACTGA,-0.246 E-score
12,ATGTACGA,0.148 E-score
13,CCTTGCAC,-0.104 E-score
14,CCACCTCA,-0.158 E-score
15,CGAATTTA,-0.0905 E-score
16,GGGTTAAA,0.116 E-score
17,ACGCTCAC,-0.0572 E-score
18,GGACGGGA,-0.0692 E-score
19,CGTCAAGC,-0.097 E-score
20,CATGCACG,-0.0192 E-score
21,AAATCGTA,-0.0165 E-score
22,TTTCCAAA,-0.223 E-score
